Several values for one entry are separate records, joined by “and”; a condition that tells them apart may be missing. Equal values may be shown once. In all, about 72,000 compounds went through this assay and about 710 (0.99%) were called active. Inconclusive results, whose numbers are uncertain, are shown with a selection of clear calls. Calls follow the shape of the dose curve; as a rule, active = well fitted inhibition curve with a large enough effect; inconclusive = small, poorly fitted or top-dose-only effect; inactive = no such curve, though single readings can be large or run the other way. Potencies of inconclusive entries are left out as doubtful fits. Where a structure was tested more than once in an assay, its records may differ in their call.
test: qHTS Assay for Inhibitors of the ERK Signaling Pathway using a Homogeneous Screening Assay; details: HEK293-V1b, vasopressin-stimulated pERK AlphaScreen; activity, negative = inhibition: at 57.5 µM (top of the series) unless noted; also: nearly all actives have a fitted effect of over 55% in size
Outline: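 qHTS, compounds titrated on V1b-expressing HEK293 cells. Preincubation 30 min at 37C, vasopressin 25 nM for 5 min, lysis 10 min, bead incubation 5 hr at room temperature.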
% is scaled to controls: 0 for no effect and ±100 for the full control effect; potency is read from the fitted curve at half-maximal effect; tags tell the direction and shape of the fitted curve.

| SMILES | Potency | activity, negative = inhibition |
| --- | --- | --- |
| COc1cc(C2CC(=O)N3CN(Cc4ccco4)CSC3=C2C#N)ccc1OCc1ccccc1 (stereo unspecified) | inconclusive [inhibitor, single point] | – |
| COCCn1c(SCC(=O)c2[nH]c(C)c(C(C)=O)c2C)nc2ccccc21 | inconclusive [inhibitor, partial curve] | – |
| CNc1nnc(CSc2nc3ccccc3s2)s1 | inconclusive [inhibitor, single point] | – |
| Cc1csc(SCC(=O)c2cc(C)n(Cc3cccs3)c2C)n1 | inconclusive [inhibitor, single point] | – |
| CN(C)c1nc(N)nc(CSc2nc3cc(Cl)ccc3o2)n1 | – | inactive: -17.7% |
| O=C1c2ccccc2C(=O)N1CCc1nc(-c2cccnc2)no1 | inconclusive [inhibitor, partial curve] | – |
| O=C(c1cccc(F)c1)N1CCN(S(=O)(=O)c2ccccc2)CC1 | – | inactive: 20.3% |
| Cc1cc(Nc2ccc(F)cc2F)n2ncnc2n1 | inconclusive [inhibitor, partial curve, poor fit] | – |
| CCn1c(=O)cc(SCC(=O)N2CCN(Cc3ccc4c(c3)OCO4)CC2)c2ccccc21 | inconclusive [inhibitor, single point] | – |
| CCOC(=O)c1c(-c2ccc(C)o2)csc1NC(=O)CN1CCN(CC)CC1 | – | inactive: -1.91% |
| COc1ccccc1CNc1ncnc2ccc(-c3cccnc3)cc12 | active: 20 µM | – |
| COc1ccc(-c2nn3c(-c4cccc(C)c4)nnc3s2)cc1OC | inconclusive [inhibitor, full curve, poor fit] | – |
| O=C(NC1CCCC1)C(c1ccco1)N(Cc1ccccc1)C(=O)c1csnn1 (stereo unspecified) | inconclusive [inhibitor, partial curve] | – |
| O=C(Nc1ccc(N2CCCC2)c(Cl)c1)c1ccco1 | inconclusive [inhibitor, full curve, poor fit] | – |
| C=CCNc1nc(-c2c(C)nc3sccn23)cs1 | inconclusive [inhibitor, partial curve] | – |
| COCC(=O)N1CCC2(CC1)CN(c1ccc(-c3ccccc3)cc1)C2 | inconclusive [inhibitor, partial curve] | – |
| Cc1cc(Br)ccc1OCC(=O)N(Cc1nc(-c2ccccc2)no1)C(C)C | – | inactive: 2.98% |
| Cc1cc(N2CCOCC2)n2nc(-c3cccc(F)c3)cc2n1 | inconclusive [inhibitor, partial curve] | – |
| CC1CCC(C(C)C)[C@H](O)C1 (stereo partly specified) | – | inactive: 41.1% |
| C=CCn1c(SCC(=O)c2ccccc2)nnc1-c1cc2ccccc2o1 | inconclusive [inhibitor, single point] | – |
| CCCc1cc(C(=O)Nc2sc3c(c2C#N)CCC3)no1 | – | inactive: -15.9% |
| CN1C=CC2=C(C#N)C(N)C(C#N)(C#N)C(c3ccccc3)C2C1 (stereo unspecified) | – | inconclusive: -30.5% [inhibitor] |
| Cc1cnc(CNc2ncnc3ccc(-c4ccccc4Cl)cc23)cn1 | active: 20 µM | – |
| COc1ccccc1NC(=O)CSc1ncn[nH]1 | – | inactive: 10.8% |

| SMILES | Potency | activity, negative = inhibition |
| --- | --- | --- |
| CC(C)[C@H](NC(=O)OC(C)(C)C)[C@@H](O)CC(=O)C(C)(C)C | – | inactive: -7.84% [at 11.5 µM] |
| CCOCCCNC(=O)C1CCN(S(=O)(=O)c2c(C)noc2/C=C\c2ccc(OC)cc2)CC1 | inconclusive [inhibitor, partial curve] | – |
| COc1ccc(-n2nc3cc(C)c(N)c(Br)c3n2)cc1 | active: 31.6 µM | – |
| CC(C)Cn1c(=O)c2c(nc3n2CCCN3CCc2ccccc2)n(C)c1=O | inconclusive [inhibitor, single point] | – |
| O=C1CC(c2ccccc2)Cc2nc(NCc3ccco3)ncc21 (stereo unspecified) | inconclusive [inhibitor, single point] | – |
| COC(=O)c1cc(-c2ccc(OC)c(OC)c2)n[nH]1 | – | inactive: -13.9% |
| O=C(Cn1cc2c(n1)CCCCC2)N1CCc2ccccc21 | inconclusive [inhibitor, partial curve] | – |
| O=S(=O)(NCc1ccccc1)c1cccc2nonc12 | inconclusive [inhibitor, single point] | – |
| C/C=C/Cn1c(N2CCCCCC2)nc2c1c(=O)[nH]c(=O)n2C | inconclusive [inhibitor, full curve] | – |
| O=C(Nc1c2c(nn1-c1ccc(F)cc1)CS(=O)(=O)C2)C12CC3CC(CC(C3)C1)C2 | – | inactive: -4.22% |
| O=c1c2ccccc2nc(SCc2nnc(-c3ccccc3)o2)n1-c1ccc(F)cc1F | inconclusive [inhibitor, partial curve] | – |
| O=C(CS(=O)CC(=O)Nc1ccc(Cl)cc1)NCC1OCCc2ccccc21 (stereo unspecified) | inconclusive [inhibitor, full curve, poor fit] | – |
| [O-][N+]1=c2ccc(Nc3ccccc3)cc2=NC12CCCCC2 | inconclusive [inhibitor, single point] | – |
| C[C@H]1[C@H]2CC[C@H]3C4CC=C5C[C@@H](N(C)C)CC[C@]5(C)C4CC[C@]23CN1C (stereo partly specified) | – | inactive: -2.46% |
| CCCOC(=O)CSc1nnc(-c2ccc(Cl)cc2Cl)o1 | – | inactive: -8.94% |
| CCN(C(=O)CSc1nnc(Cn2nnc3ccccc32)o1)c1nc(-c2ccccc2)cs1 | inconclusive [inhibitor, single point] | – |
| COc1ccc(NC(=O)c2ccc(-c3ccc(-c4noc(C)n4)cc3C)cc2)cc1N1CCN(C)CC1 | inactive and active: 12.6 µM | – |
| O=C(Nc1ccncc1)c1cccc(F)c1 | – | inactive: -24.8% |
| Cc1cc2c(nc1C)CCCN2C[C@@H](O)CN1CCN(C)CC1 | – | inactive: 14.7% [at 11.5 µM] |
| Cc1cccc(CNc2ncnc3ccc(-c4cccc(C#N)c4)cc23)c1 | inconclusive [inhibitor, full curve] | – |
| O=C(CSc1ncccn1)NCc1ccccc1Cl | inconclusive [inhibitor, single point] | – |
| CSc1nc(NC(C)C)nc(N2CCOCC2)n1 | inconclusive [inhibitor, partial curve] | – |
| COc1ccc(CCN2CCCn3c2nc2c3c(=O)n(Cc3ccccc3F)c(=O)n2C)cc1OC | inconclusive [inhibitor, full curve] | – |
| COCc1c(Br)c(C)nc(OCC(=O)O)c1C#N | inconclusive [inhibitor, partial curve] | – |

| SMILES | Potency | activity, negative = inhibition |
| --- | --- | --- |
| COc1ccc(-n2c(Cc3cccn3C)nnc2SCC(=O)NCc2ccccc2Cl)cc1 | inconclusive [inhibitor, single point] | – |
| Cc1ccc(-c2nnc(SCC(=O)Nc3ccccc3N3CCOCC3)o2)cc1 | inconclusive [inhibitor, partial curve] | – |
| Cc1cccc(CNc2ncnc3ccc(-c4cccnc4)cc23)c1 | active: 2 µM | – |
| COC(=O)/C=c1\sc2n(c1=O)C(C)=CC(C)(C)N=2 | inconclusive [inhibitor, single point] | – |
| O=C(Nc1ccccc1C(=O)NCc1ccco1)c1ccccc1 | – | inactive: -28.3% |
| CC(NC(=O)c1ccco1)C(c1cccs1)N1CCN(c2ccc(F)cc2)CC1 (stereo unspecified) | inconclusive [inhibitor, partial curve, poor fit] | – |
| Cc1cccc(-c2nnc3sc(-c4ccccc4)nn23)c1 | – | inactive: -14.8% |
| CCC1=C2CC[C@H]3C(=O)NC(=O)[C@H]3[C@H]2[C@@]2(C)C(=NCCOC)OC(=O)N2C1=O | – | inactive: 17.1% |
| O=C(Cn1cc2c(n1)CCCC2)Nc1cc(-c2cccc(Cl)c2)no1 | inconclusive [inhibitor, single point] | – |
| COc1cccc(C2C(C)CCC3C(=O)N(C)C(C(C)C)C(=O)N32)c1 (stereo unspecified) | – | inactive: 23.3% [at 11.5 µM] |
| COc1ccc2[nH]cc(CCNc3ncnc4ccc(-c5ccc6c(c5)OCO6)cc34)c2c1 | inconclusive [inhibitor, partial curve] | – |
| CO[C@H]1COC(=O)CCC[C@H](C)[C@@H](OC)COC(=O)C/C=C\[C@@H]1C | – | inactive: -1.52% [at 11.5 µM] |
| COc1ccc(-c2cc(-c3ccccc3O)[nH]n2)cc1OC | inconclusive [inhibitor, single point] | – |
| Cc1cc(C(=O)CSc2nnc(N)s2)c(C)n1CCc1ccc(Cl)cc1 | – | inactive: 24.1% |
| C1=CC2c3ccccc3NC(c3ccncc3)C2C1 (stereo unspecified) | inconclusive [inhibitor, single point] | – |
| c1ccc(C2=Nn3c(nnc3-c3n[nH]c4c3CCC4)SC2)cc1 | inconclusive [inhibitor, single point] | – |
| CCc1ccccc1NC(=O)CN(C)Cc1nc(N)nc(Nc2ccccc2C)n1 | inconclusive [inhibitor, partial curve] | – |
| c1cc2c3c(c1)c1c(n3CCNC2)CCCC1 | inconclusive [inhibitor, partial curve, poor fit] | – |
| C=CCn1c(NCc2ccccc2)nc2ccccc21 | – | inactive: -5.39% |
| Cc1ccc(CNc2nc3ccccc3n3nnnc23)cc1 | inconclusive [inhibitor, single point] | – |
| COc1cccc(N2CC(O)Cn3c2nc2c3c(=O)n(CCCc3ccccc3)c(=O)n2C)c1 (stereo unspecified) | inconclusive [inhibitor, single point] | – |
| O=C(Cn1ccc2ccccc2c1=O)NCCC(=O)N1CCN(C2CCCCC2)CC1 | inconclusive [inhibitor, full curve, poor fit] | – |
| Cc1cccc(-c2nnc(NC(=O)c3ccc(Cl)cc3)o2)c1 | inconclusive [inhibitor, full curve] | – |

From PubChem BioAssay AID995 (National Center for Advancing Translational Sciences (NCATS), 2007)
